# Whole data set: some 81,000 sequences, median “one-hybrid fitness for binding NBS DNA” near -0.1, cut for the highest 2% near 0.36. Some of the results follow.
# B1: Caulobacter ParB omega fusion; a variant is named by its letters at X, in order, B8GW30 (parent)
# chain: MESVVVGEPGMSEGRRGLGRGLSALLGEVDAAPAQAPGEQLGGSREAPIEILQRNPDQPRRTFREEDLEDLSNSIREKGVLQPILVRPSPDTAGEYQIVAGERAWRAAQRAGLKTVPIMVRELDDLAVLEIGIIENVQRADLNVLEEALSYKVLMEKFERTQENIAQTIGKSXSHVANXMRLLXLPDEVQSYLVSGELTAXHARAIAAAADPVALAKQIIEGGLSVRETEALARKAPNLSAGKSKGGRPPRVKDTDTQALESDLSSVLGLDVSIDHRGSTGTLTITYATLEQLDDLCNRLTRGI
# Variants of: B1
# Assay: one-hybrid fitness for binding NBS DNA (the Noc-binding site; scaled: cognate 1, non-cognate 0); higher = stronger binding
# Settings: with NBS DNA site
# Procedure, shortened: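 In E. coli USO, a HIS3 reporter with its site placed 19 bp from the promoter was used to select Caulobacter ParB variants randomised at four specificity codons. Growth lasted 48 hours at 37°C on histidine-free M9 containing 0.1 mM IPTG and 5 mM 3-AT. Fitness was taken as the log change in variant-to-wild-type read ratio from Illumina sequencing of pre- and post-selection plasmids, rescaled between the non-cognate and cognate sites.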
row,Variant,one-hybrid fitness for binding NBS DNA
1,GGVF,≤ 0.2
2,QMGK,0.221
3,SASW,≤ 0.2
4,VAPM,≤ 0.2
5,RHMW,≤ 0.2
6,TQDK,≤ 0.2
7,PAMN,≤ 0.2
8,CFAW,≤ 0.2
9,RMLW,≤ 0.2
10,TLWS,≤ 0.2
11,HLQL,≤ 0.2
12,REVW,≤ 0.2
13,QLNT,0.45
14,PRQC,≤ 0.2
15,LLWC,≤ 0.2
16,NQWL,≤ 0.2
17,SGIR,≤ 0.2
18,GCTT,≤ 0.2
19,RMYQ,≤ 0.2
20,TVSN,≤ 0.2
21,KTAL,≤ 0.2
22,MPQS,≤ 0.2
23,DRIF,≤ 0.2
24,HRYC,≤ 0.2

row,Variant,one-hybrid fitness for binding NBS DNA
1,HLPN,≤ 0.2
2,VQSM,≤ 0.2
3,RYAH,≤ 0.2
4,EINM,≤ 0.2
5,QMQM,≤ 0.2
6,RALR,0.32
7,YTIL,≤ 0.2
8,SLFE,≤ 0.2
9,YPVL,≤ 0.2
10,YHAN,≤ 0.2
11,PTVI,≤ 0.2
12,DIRV,≤ 0.2
13,QIAH,≤ 0.2
14,WRKC,≤ 0.2
15,FSVC,≤ 0.2
16,PQMR,≤ 0.2
17,VMQC,≤ 0.2
18,DSDR,≤ 0.2
19,DYYL,≤ 0.2
20,QMYY,≤ 0.2
21,TCQR,≤ 0.2
22,NQCR,≤ 0.2
23,CDET,≤ 0.2
24,TLMM,≤ 0.2

row,Variant,one-hybrid fitness for binding NBS DNA
1,TWSY,≤ 0.2
2,NQWS,≤ 0.2
3,PMYE,≤ 0.2
4,QCHT,0.551
5,LDQG,≤ 0.2
6,ASPQ,≤ 0.2
7,NVSV,≤ 0.2
8,LFEC,≤ 0.2
9,PGLR,≤ 0.2
10,VKEL,≤ 0.2
11,QERT,≤ 0.2
12,QCLR,0.562
13,DSGR,≤ 0.2
14,HDHG,≤ 0.2
15,QQGV,≤ 0.2
16,GRCV,≤ 0.2
17,VPPI,≤ 0.2
18,VLAV,≤ 0.2
19,PWTV,≤ 0.2
20,QYHK,≤ 0.2
21,SRTE,≤ 0.2
22,ECNL,≤ 0.2
23,KHRC,≤ 0.2
24,RWMD,≤ 0.2

row,Variant,one-hybrid fitness for binding NBS DNA
1,GPKR,0.269
2,RIDN,≤ 0.2
3,PWYR,≤ 0.2
4,DMEP,≤ 0.2
5,IHHT,≤ 0.2
6,KELC,≤ 0.2
7,TPEF,≤ 0.2
8,QKIN,≤ 0.2
9,FIAS,≤ 0.2
10,SFCM,≤ 0.2
11,IGLS,≤ 0.2
12,CRAK,≤ 0.2
13,NGQP,≤ 0.2
14,CSIK,≤ 0.2
15,RYLK,≤ 0.2
16,STIG,≤ 0.2
17,PVAA,≤ 0.2
18,DLKK,≤ 0.2
19,VLML,≤ 0.2
20,PHFE,≤ 0.2
21,VPPG,≤ 0.2
22,GWHR,≤ 0.2
23,EQVF,≤ 0.2
24,IAVR,≤ 0.2

row,Variant,one-hybrid fitness for binding NBS DNA
1,GAVV,≤ 0.2
2,DSPA,≤ 0.2
3,YFKY,≤ 0.2
4,ARSY,≤ 0.2
5,PSIE,≤ 0.2
6,YHSS,≤ 0.2
7,VEKS,≤ 0.2
8,QEAC,≤ 0.2
9,MKYL,≤ 0.2
10,QEQD,≤ 0.2
11,WARQ,≤ 0.2
12,FAKM,≤ 0.2
13,QIRP,≤ 0.2
14,KTMH,≤ 0.2
15,TYIR,≤ 0.2
16,RQCK,≤ 0.2
17,SYSS,≤ 0.2
18,CLPT,≤ 0.2
19,MNNR,≤ 0.2
20,FLPA,≤ 0.2
21,SSPC,≤ 0.2
22,QRMM,0.334
23,FEKY,≤ 0.2
24,AGSG,≤ 0.2

row,Variant,one-hybrid fitness for binding NBS DNA
1,TLDD,≤ 0.2
2,TLLK,≤ 0.2
3,SPFT,≤ 0.2
4,YQNT,≤ 0.2
5,EKFS,≤ 0.2
6,VNHM,≤ 0.2
7,LNSD,≤ 0.2
8,IHPV,≤ 0.2
9,ILPW,≤ 0.2
10,LEPK,≤ 0.2
11,YYNG,≤ 0.2
12,RPNS,≤ 0.2
13,SAFV,≤ 0.2
14,FISG,≤ 0.2
15,MDST,≤ 0.2
16,CPRN,≤ 0.2
17,PSDT,≤ 0.2
18,GSWT,≤ 0.2
19,TYEG,≤ 0.2
20,MTTE,≤ 0.2
21,GSCS,≤ 0.2
22,AYEM,≤ 0.2
23,SEHR,≤ 0.2
24,NTPA,≤ 0.2

row,Variant,one-hybrid fitness for binding NBS DNA
1,RSDR,≤ 0.2
2,TEWG,≤ 0.2
3,KQGL,≤ 0.2
4,RYPF,≤ 0.2
5,SSIS,≤ 0.2
6,STCH,≤ 0.2
7,PRRE,≤ 0.2
8,PALM,≤ 0.2
9,GNQD,≤ 0.2
10,DMDR,≤ 0.2
11,IYDC,≤ 0.2
12,RHRQ,≤ 0.2
13,IYWR,≤ 0.2
14,RYYI,≤ 0.2
15,MLRS,≤ 0.2
16,CWCR,≤ 0.2
17,NGRK,≤ 0.2
18,AIPN,≤ 0.2
19,YSMA,≤ 0.2
20,GCSR,≤ 0.2
21,DVTG,≤ 0.2
22,YGTY,≤ 0.2
23,QTTM,0.245
24,CDRN,≤ 0.2

row,Variant,one-hybrid fitness for binding NBS DNA
1,LSRA,≤ 0.2
2,ENSA,≤ 0.2
3,SHCE,≤ 0.2
4,NMRM,≤ 0.2
5,SPRK,≤ 0.2
6,HPPY,≤ 0.2
7,IPSH,≤ 0.2
8,DGAG,≤ 0.2
9,RELY,≤ 0.2
10,RHLW,≤ 0.2
11,DNTC,≤ 0.2
12,IACR,≤ 0.2
13,YSDG,≤ 0.2
14,TMHE,≤ 0.2
15,STVQ,≤ 0.2
16,QDRS,≤ 0.2
17,GQVC,≤ 0.2
18,CSNC,≤ 0.2
19,PWVP,≤ 0.2
20,QKHW,≤ 0.2
21,AESR,≤ 0.2
22,YHYM,≤ 0.2
23,RTSE,≤ 0.2
24,PSSV,≤ 0.2

row,Variant,one-hybrid fitness for binding NBS DNA
1,RLGQ,≤ 0.2
2,MSKE,≤ 0.2
3,PQEN,≤ 0.2
4,DAHC,≤ 0.2
5,TRAQ,≤ 0.2
6,VCHC,≤ 0.2
7,INSL,≤ 0.2
8,LDER,≤ 0.2
9,VDVI,≤ 0.2
10,SRSI,≤ 0.2
11,YTES,≤ 0.2
12,RPLI,≤ 0.2
13,LSDT,≤ 0.2
14,NRGK,≤ 0.2
15,CALC,≤ 0.2
16,QKAK,≤ 0.2
17,VGSR,≤ 0.2
18,TDGS,≤ 0.2
19,VLRF,≤ 0.2
20,QMYV,≤ 0.2
21,WGDL,≤ 0.2
22,VLLC,≤ 0.2
23,DMRT,≤ 0.2
24,KKAD,≤ 0.2

row,Variant,one-hybrid fitness for binding NBS DNA
1,QWKM,≤ 0.2
2,VKAL,≤ 0.2
3,PQLM,≤ 0.2
4,TKPA,≤ 0.2
5,ESVS,≤ 0.2
6,FTGS,≤ 0.2
7,LVCW,≤ 0.2
8,DGYG,≤ 0.2
9,DEDG,≤ 0.2
10,GNIV,≤ 0.2
11,AMFC,≤ 0.2
12,VKHG,≤ 0.2
13,LVCT,≤ 0.2
14,PDLA,≤ 0.2
15,ANPD,≤ 0.2
16,RDVI,≤ 0.2
17,HMSI,≤ 0.2
18,LYHF,≤ 0.2
19,QFYG,≤ 0.2
20,SLTT,≤ 0.2
21,HSMW,≤ 0.2
22,NRGT,≤ 0.2
23,PDQS,≤ 0.2
24,PNNA,≤ 0.2

row,Variant,one-hybrid fitness for binding NBS DNA
1,FYPT,≤ 0.2
2,SIVA,≤ 0.2
3,DLHT,≤ 0.2
4,STSK,≤ 0.2
5,ELNC,≤ 0.2
6,TSRK,≤ 0.2
7,MTVF,≤ 0.2
8,DPTK,≤ 0.2
9,WTFC,≤ 0.2
10,RGMI,≤ 0.2
11,NKVT,≤ 0.2
12,QQSW,≤ 0.2
13,LMTN,≤ 0.2
14,YMMT,≤ 0.2
15,AEDF,≤ 0.2
16,FDQT,≤ 0.2
17,QPHA,≤ 0.2
18,RLRS,0.541
19,YWYR,≤ 0.2
20,QSYW,≤ 0.2
21,NSCM,≤ 0.2
22,WDPK,≤ 0.2
23,WCDG,≤ 0.2
24,LYWR,≤ 0.2

row,Variant,one-hybrid fitness for binding NBS DNA
1,WHSG,≤ 0.2
2,SFDV,≤ 0.2
3,LLPM,≤ 0.2
4,MLHS,≤ 0.2
5,QCQG,≤ 0.2
6,LRSI,≤ 0.2
7,PPVW,≤ 0.2
8,VMCV,≤ 0.2
9,QHKY,0.529
10,ELPD,≤ 0.2
11,KNTT,≤ 0.2
12,QMWK,≤ 0.2
13,DSHL,≤ 0.2
14,LNIT,≤ 0.2
15,TQNT,≤ 0.2
16,RPDD,≤ 0.2
17,VFIC,≤ 0.2
18,RMDG,≤ 0.2
19,AMIR,≤ 0.2
20,VNFE,≤ 0.2
21,AWTV,≤ 0.2
22,KQTT,≤ 0.2
23,HPFV,≤ 0.2
24,VVLS,≤ 0.2

row,Variant,one-hybrid fitness for binding NBS DNA
1,QNTN,≤ 0.2
2,WCVT,≤ 0.2
3,WDDY,≤ 0.2
4,WKRL,≤ 0.2
5,ALGM,≤ 0.2
6,QVGL,≤ 0.2
7,DFES,≤ 0.2
8,QKEY,≤ 0.2
9,WNNR,≤ 0.2
10,KKNN,≤ 0.2
11,PYSL,≤ 0.2
12,LWYT,≤ 0.2
13,VMVG,≤ 0.2
14,NYFL,≤ 0.2
15,DLIT,≤ 0.2
16,DVQS,≤ 0.2
17,TAWG,≤ 0.2
18,PGPE,≤ 0.2
